From the supplement of paper PMC3334620
The full ranking holds about 33,000 sequences; the median of “E-score (-0.5 to 0.5)” is about -0.012, and the highest 2% start at about 0.27. This is one part of the list.

Target: T1, Vhr1 (UniProt P40522)
T1 sequence: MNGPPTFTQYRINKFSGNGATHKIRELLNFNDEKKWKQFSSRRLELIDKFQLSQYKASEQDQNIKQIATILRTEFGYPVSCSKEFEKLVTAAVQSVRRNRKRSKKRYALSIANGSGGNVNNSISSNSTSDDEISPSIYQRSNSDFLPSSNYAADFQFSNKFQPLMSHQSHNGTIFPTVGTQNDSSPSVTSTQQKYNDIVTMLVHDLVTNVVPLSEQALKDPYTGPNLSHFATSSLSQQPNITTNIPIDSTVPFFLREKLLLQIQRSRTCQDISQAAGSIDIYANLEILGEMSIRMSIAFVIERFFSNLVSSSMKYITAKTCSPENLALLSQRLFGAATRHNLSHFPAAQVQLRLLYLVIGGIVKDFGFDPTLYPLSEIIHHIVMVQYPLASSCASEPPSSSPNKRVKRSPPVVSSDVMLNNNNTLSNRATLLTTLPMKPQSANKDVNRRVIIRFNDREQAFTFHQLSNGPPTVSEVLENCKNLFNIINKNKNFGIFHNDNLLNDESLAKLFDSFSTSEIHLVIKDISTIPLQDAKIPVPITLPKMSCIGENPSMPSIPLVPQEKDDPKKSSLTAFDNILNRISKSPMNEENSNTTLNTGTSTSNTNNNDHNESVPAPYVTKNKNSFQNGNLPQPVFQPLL
Test: PBM E-score (8-mer binding enrichment) (E-score (-0.5 to 0.5)); higher = stronger / more preferred TF binding; most listed sequences are background and not binding sites
Details: protein concentration: 200 nM; construct: GST-full length
Summary of the method: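 Using PURExpress in vitro transcription/translation, GST-tagged yeast transcription factors were made in full-length or DNA-binding-domain form. These were applied at about 100-200 nM to double-stranded universal all-10-mer Agilent arrays, and bound protein was detected with fluorescent anti-GST. Scans were normalised with masliner before the Universal PBM Analysis Suite assigned E-scores to ungapped eight-base words pooled with their reverse complements.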

Sequence	PBM E-score
GAGTGCAA	0.0799
ATTGTAAC	0.106
CCAGGACG	-0.186
GCAGGTCC	0.0837
CCACGAAC	0.101
ACATGACG	-0.0758
GTAGATAC	-0.0265
CACCACTA	0.171
CAGGACCC	-0.158
CGCAGTGA	0.0397
GACACGCA	0.2
ACTAAAAG	-0.0887
GCTAGATA	0.0455
GCAGAAAC	0.0133
AGATCGCG	0.0187
AAGTTACG	0.0571
CGAGAACC	-0.0949
CCCCTAGG	-0.167
GAGAGCAC	0.025
GACAGTAC	0.0522
GTATGGTA	0.249
TATAGTCA	0.318
CCAGACTC	0.0626
AAGCTGAG	0.0164
CTAAGAGA	-0.319

Sequence	PBM E-score
AGCAAGAC	-0.0506
CGGAGGAC	0.00537
AACGGGTA	0.14
AAAAGTAG	-0.122
CACCGACA	0.113
AGAGTGAG	0.138
ACTTGTCA	0.0667
AGACGCGA	0.00886
CTTGCGTA	-0.12
ACATCCCG	0.231
ACACGCCG	0.22
GTGCCCGA	-0.0982
AAGTACTG	-0.0527
AAACACAA	-0.206
ACAGCATC	-0.0795
AATGAGGA	-0.253
CTTGCAAG	0.0814
ATAGCGTA	-0.0276
ATATGTTA	-0.0934
TACCCTGA	-0.0328
CTGACGAC	0.0741
ATGGGAAG	-0.014
AACTTGTG	0.167
AGAATCTA	-0.0729
CGTCCAAA	-0.0449

Sequence	PBM E-score
AAACGATA	0.0452
ATTTTAGG	-0.0155
ATTAATTG	0.131
ACGTTCCC	-0.326
CCAATAGC	-0.146
CTGGACAG	0.0575
CACACCTC	0.285
CGCTGTGA	0.132
AGCCGGTA	0.00445
CCCCCCAG	-0.29
GGCTTGAC	-0.0961
ACAATGAA	0.0232
CGCGACGC	-0.00297
TCAAGCGA	-0.0594
CCGGCGCA	0.066
CAAGACAC	0.0277
CGTACTCA	0.283
GGGACAGA	0.0636
GATTACAA	-0.00266
ATTGGTCG	0.00817
AGTGCAAT	-0.0316
CCTCGCGC	-0.0292
CTCATAAA	-0.00613
ATACCTGA	0.187
CCTAGACA	-0.042

Sequence	PBM E-score
CGATTTGC	-0.0615
ATCTAGAG	-0.0639
ATCTATGA	0.135
AGGCCCCG	-0.311
CAGGTGAC	0.23
CGGTCCTC	-0.122
CGAAACTA	0.0681
GGTCATGA	0.239
ATGTGTAG	0.201
CTCGTGTA	0.147
GCGATCGC	0.266
GGAGGTAA	-0.169
AGAGCTCA	-0.0882
ACCTCATA	0.0842
CGTATGCA	0.164
CAGCCAGA	0.148
GAAAGCTC	-0.255
AAAAGAGT	-0.144
AGAGAGGC	-0.331
CAATATTG	0.0555
AGATTCAA	-0.133
AATTGTCA	0.091
CGGGGCCC	0.242
TAGACAGA	0.0315
ACCGATTG	0.0862

Sequence	PBM E-score
AACATGCT	0.0146
GTAACGAA	0.0425
CCCATACG	-0.0146
CCGCGGTA	0.153
CAACGAGA	-0.0109
GCTCTTAC	-0.0832
TGCTCAAA	-0.193
GAGGGTCA	-0.217
GTACATGA	0.143
CTGGCATA	0.172
TCTAGTCA	0.218
CACCACGC	-0.174
CAACGAGG	0.102
CATAAGCC	-0.00741
AATGCTCT	-0.224
CCCTCCTA	-0.0375
GCAAATAC	-0.0972
GACTGAGC	0.1
CATCATAC	0.216
ATTATCGA	0.045
GGGGTCGA	0.0657
ATATCGAG	0.0583
ACGAAGCA	0.00046
AAGCATAG	-0.171
ACAGTTGG	-0.02

Sequence	PBM E-score
GATGGAAC	-0.119
GCCTAGTA	0.0251
AGAGTTAC	0.0255
CATTATAA	-0.113
AATGTTTG	-0.116
AAAACGGA	0.0536
CGTATCAC	0.231
CATTGTAC	0.0227
GTTTCCTA	-0.206
ACAGCAAC	0.123
ATCCTAAG	-0.00139
CAGCGGGG	-0.0743
GATACAAA	0.0894
AAAGACGT	-0.22
CATGGTAG	0.207
AGAACGCT	-0.277
GACACGGA	0.00283
CCAATACG	-0.209
AAGAAATT	-0.267
GACCTACA	-0.0263
AAGCGTGG	0.0736
ACTTCAGC	-0.206
GGATTACC	0.0515
TGTGACAA	0.139
GATAGGAA	-0.0552

Sequence	PBM E-score
TTCCAGAA	-0.0741
CTTACCCA	0.104
CTGCAATA	0.00129
GAGATACA	0.145
AGGATCAG	-0.0775
CAGTTGAG	-0.0882
GCCTCGGA	-0.121
ACACACAT	0.275
GACTCTCA	0.271
CAGATAGC	-0.11
GGCCGGGA	0.00327
TACGTCTA	-0.145
AGGTCGTC	-0.00709
AATCACAT	0.17
AAGTACTT	-0.168
GCTGCGAA	-0.015
CGACACAA	0.134
ACACAGCC	0.232
GGTTCTTA	-0.0254
AGATCACT	0.077
GCTAGGAC	-0.117
TCCCTCAA	-0.26
ACGTGTCG	-0.101
GATTCGGA	0.162
ATGGTCGC	0.146

Sequence	PBM E-score
CATTGGCC	-0.134
GGATATAA	0.227
CCTACCCA	-0.0337
CATCTAGA	0.0398
TGTTAACA	0.0688
ACTTTTAG	-0.193
ACATAAGC	-0.101
GTGCACCA	-0.0256
ATACTCAG	0.274
CCATGATA	0.102
AGAGACCT	-0.196
GGCGTGAC	0.0985
GATGCCGA	-0.0335
GCTGGAGA	-0.112
AACATCCT	0.0517
AGACGGCT	-0.0175
GCCGGGTA	0.0324
ACACTTGC	0.0493
GTATAACA	0.138
GCTGAGAC	0.0972
CGAGCTAA	-0.0732
AGGCCTAT	-0.312
GCTAATGA	-0.101
GATGCAAA	-0.139
GCGGTCCA	-0.158

Sequence	PBM E-score
GAGGTCAA	-0.0724
GAAGAGGC	-0.0818
ATCCAACC	0.0162
AGCGTAGG	-0.0366
CGTCCGGC	-0.0491
AAACCGGT	-0.14
CCGGTTCA	-0.0875
CTAGCATA	-0.0867
GATAACTA	0.182
AACCCGTA	-0.103
CTGAGCGC	-0.0109
AAGGAGTC	0.203
CGGAAGGA	-0.029
ACTGATAC	0.0766
ATTGACAC	0.00527
AAATCTGC	-0.104
GCTCGCCC	0.108
ATGGTTCA	0.366
CCTTAGAA	-0.267
GTTCACAA	0.0201
CTTGATCC	0.106
AAATGGTA	0.13
AAAATGCC	-0.414
ACACCCTG	0.117
AATTCTCG	-0.0319

Sequence	PBM E-score
CCCCCGTC	-0.223
GGCATCTA	-0.0577
GGACGTCA	-0.096
ATTCTTAG	-0.158
ACAAACTA	0.159
AATGTAAT	0.118
AGAACGCC	-0.131
CCGCGTCC	0.0398
GATTAACC	-0.0165
AATGCAAA	-0.0769
GGCATGAA	-0.0315
GCTATCAA	0.11
AGGTTATG	0.0825
CGCGCGTA	0.0934
AACAAATC	0.0441
TGTCTCAA	-0.0653
GTCTACCA	-0.149
TATACCAA	0.171
AGTTCTCA	0.0774
CGGCGAAG	-0.136
GTATTGAA	0.0354
AAAAAATA	-0.112
TCTGGCAA	-0.189
GCTACTCC	-0.145
CTGTAAAA	-0.122

Sequence	PBM E-score
ACAGTATA	0.11
AGCTCGAT	0.237
GATCTGGA	0.0234
GAAGCTAA	-0.215
CGCAGGCA	0.0774
ATACGTAA	-0.0869
CCAACCAG	0.127
CAAATGGG	0.0359
GGAGCCAC	0.165
ACTATTAT	0.153
ACTGGTTC	0.0182
CCGCTGCG	-0.00887
ATGGTCTC	0.00212
ATCGAGCA	-0.00467
CCGACACG	0.0261
ATGGGTGA	0.322
CTCTCTAC	-0.103
GGGCACCA	-0.177
CGGTCGCA	-0.104
GTTCCACA	-0.103
CACGCCGA	0.163
AATCCGGG	0.0326
ACCCTGTC	-0.0143
AGTAAGTA	0.0778
CGGTCCCA	-0.0802

Sequence	PBM E-score
CCGGCGAA	0.0401
AATAGATA	0.12
GTCACGTA	0.13
CTCGCGAG	0.14
AATGTTGT	0.0078
CTCTCCCC	-0.0438
CGTCACGA	0.00392
CGGCTACA	0.153
GCTTTTCA	-0.241
AGGCACTC	-0.0419
ACCCGAAC	0.0967
ATGGTACA	0.228
AGGGGTTG	0.0767
TGCGACAA	-0.00077
GAAGAAGC	-0.107
ATTAGGGG	-0.162
CGCCCCCA	-0.127
GCTACTAA	-0.0624
ATAGCATA	0.161
GCCGGGGA	-0.0234
GGAGCCAA	-0.135
AACGCGGA	-0.0374
AGGTACAC	0.0298
TAGACCCA	0.0873
CACCCACA	0.241

Sequence	PBM E-score
CCACGGGA	-0.0899
GATTATCC	0.0985
CCGCCAGG	-0.139
CAGTGAGC	0.0804
TCCTCCCA	-0.181
AGGAAGGG	-0.35
CTCTAGCA	-0.196
AATCTTGG	-0.0367
CGGCCGTA	-0.0427
ACTGTAGC	-0.0776
AAAAAAAA	0.0125
GGTAACGA	0.168
ACGTATGA	0.155
ACGATTTA	0.113
GGAATCCA	0.0687
CGGGGCAC	-0.14
CCGGAATC	0.259
CTACGGCC	-0.264
CGTTCCCC	0.0185
TGAATGCA	0.0567
ACCCTACA	0.0564
CCGCAGGC	-0.012
CATTCGAC	0.16
AAGCAGAA	-0.123
AATTGGGC	-0.208

Sequence	PBM E-score
CCTAGTGC	-0.00138
AAGCCACT	-0.0197
ACCCCTCC	0.0742
ACGAGACT	-0.0664
CTAGCAAA	0.00326
AAGGAGAT	-0.0121
AATATCAT	0.208
TCCACAAA	-0.124
ACTCAACT	0.141
AATCCTAA	-0.00704
AGACAGTA	0.0953
AGGGGTAG	-0.00777
GATTTTCA	-0.158
GAAAGCTA	-0.131
AACGTCTG	-0.0772
AGTAAACT	0.0362
AAATAGGT	0.0511
GCGGACGA	-0.029
ACCTGAAG	-0.228
